From PMC4336329 (PLoS ONE, 2015)
Out of some 310,000 compounds screened, about 14,000 (4.5%) showed an effect of 50% or more. The effect is printed as a negative number. The list shows a part of the results.

These compounds were tested against human ether-à-go-go-related gene (hERG) potassium channel (human, UniProt Q12809) (assay: primary screen, population patch clamp on CHO cells stably expressing hERG).
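Also: peak tail current of the secondary pulse compared with the same well before compound.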

human ether-à-go-go-related gene (hERG) potassium channel, sequence (Q12809 whole entry, looked up): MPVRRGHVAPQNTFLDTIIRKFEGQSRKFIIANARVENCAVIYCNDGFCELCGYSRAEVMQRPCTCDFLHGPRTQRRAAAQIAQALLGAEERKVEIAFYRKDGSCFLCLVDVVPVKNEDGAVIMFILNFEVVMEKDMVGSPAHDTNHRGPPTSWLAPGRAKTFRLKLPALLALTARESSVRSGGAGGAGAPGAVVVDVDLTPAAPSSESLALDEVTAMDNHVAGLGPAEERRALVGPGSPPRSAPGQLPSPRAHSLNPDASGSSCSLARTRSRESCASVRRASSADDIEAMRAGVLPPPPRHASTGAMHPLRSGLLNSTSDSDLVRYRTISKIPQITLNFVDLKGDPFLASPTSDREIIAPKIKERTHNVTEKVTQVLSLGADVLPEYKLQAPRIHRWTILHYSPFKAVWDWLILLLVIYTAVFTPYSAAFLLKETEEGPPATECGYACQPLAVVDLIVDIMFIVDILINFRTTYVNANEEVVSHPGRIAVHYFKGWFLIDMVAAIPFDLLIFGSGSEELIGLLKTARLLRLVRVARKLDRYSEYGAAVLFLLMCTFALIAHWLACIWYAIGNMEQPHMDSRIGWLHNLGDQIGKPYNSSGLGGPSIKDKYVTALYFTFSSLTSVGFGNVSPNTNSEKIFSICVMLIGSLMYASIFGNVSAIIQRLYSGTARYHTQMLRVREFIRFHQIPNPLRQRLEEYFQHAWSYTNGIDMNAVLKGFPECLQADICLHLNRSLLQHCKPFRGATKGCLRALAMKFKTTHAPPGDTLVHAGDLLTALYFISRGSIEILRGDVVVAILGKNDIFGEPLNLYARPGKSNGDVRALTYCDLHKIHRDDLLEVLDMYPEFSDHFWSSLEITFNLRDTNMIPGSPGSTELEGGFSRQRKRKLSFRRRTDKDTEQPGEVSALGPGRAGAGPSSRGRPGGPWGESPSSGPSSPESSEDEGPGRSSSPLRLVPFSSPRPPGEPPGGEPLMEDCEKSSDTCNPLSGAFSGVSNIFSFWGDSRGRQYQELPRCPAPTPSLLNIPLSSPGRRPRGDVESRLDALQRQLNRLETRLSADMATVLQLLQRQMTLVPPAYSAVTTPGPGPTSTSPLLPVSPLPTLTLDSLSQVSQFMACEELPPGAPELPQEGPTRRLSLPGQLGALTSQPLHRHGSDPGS

Row | Compound | hERG current change (%, negative = inhibition) at 10uM [%]
1 | COC(=O)c1ccccc1-c1ccc(/C=N/Nc2nc(N3CCCC3)nc(N3CCCC3)n2)o1 | -7.83
2 | CN(CCC#N)C(=O)Cn1nc(Cc2ccncc2)c2ccccc2c1=O | -9.03
3 | Cn1c(SCC(=O)Nc2cccc(NC(=O)c3cccs3)c2)nnc1-c1ccncc1 | -11
4 | COc1ccc2c(Cl)c(C(=O)N/N=C3\CCCC(=O)C3)sc2c1 | -9.05
5 | COCCN1C(=O)N(c2cccc(OC)c2)C(=O)C1CC(=O)Nc1cccc(F)c1 (centres unmarked) | 8.84
6 | COC(=O)[C@H](CCSC)NC(=O)Nc1cccc(C)c1C | 12.9
7 | CCOC(=O)c1sc2nc(CSc3nc4ccccc4n3CC)[nH]c(=O)c2c1C | 4.55
8 | COC(=O)c1nc(NC(=O)c2ccccc2)n[nH]1 | -9.58
9 | O=C1S/C(=C\C=C\c2ccco2)C(=O)N1c1ccccc1 | 1.52
10 | Cc1ccnc(NC(=O)c2ccc(C(=O)c3ccccc3)cc2)c1 | -13.1
11 | COc1ccccc1NC(=O)C(C)N1C(=O)c2ccccc2C1=O (centres unmarked) | 5.76
12 | Cn1c(=O)c2c(-c3ccccc3F)c3c(nc2n(C)c1=O)-c1ccccc1C3O (centres unmarked) | -1.86
13 | Cc1sc2ncnc(Sc3nnnn3-c3ccccc3)c2c1C | -2.04
14 | CC(C)(C)c1ccc(OCC(=O)Nc2ccc(C(=O)Nc3ccccc3C(=O)O)cc2)cc1 | 30.4
15 | CC(=O)O/N=C/c1c(NCc2ccccc2)nc2c(C)cccn2c1=O | -5.54
16 | Cc1ccccc1NC(=O)/C(=C/c1ccco1)c1ccccc1 | -3.77
17 | Cn1cnnc1Sc1cc(N2CCN(S(=O)(=O)c3ccccc3)CC2)ccc1[N+](=O)[O-] | -60.5
18 | O=C(Nc1ccc(CN2CCCCC2)cc1)c1cccc(Br)c1 | -86.7
19 | CCOc1ccc(CCNC(=O)CSc2cc(=O)n(C)c3cc(Cl)ccc23)cc1OCC | -3.7

Row | Compound | hERG current change (%, negative = inhibition) at 10uM [%]
20 | CN(CCOc1ccccc1)C(=O)c1ccc(OC2CCN(C(=O)C3CC3)CC2)cc1 | -25.7
21 | CN(Cc1ccccc1)C(=O)COC(=O)c1cc(-c2ccc(Cl)s2)nc2ccccc12 | -4.81
22 | C[C@@H]1CC=C[C@H]2[C@H]1C(=O)N(Cc1ccccc1)[C@H]2c1ccc2ccccc2c1/C=C/c1ccccc1 | 9.88
23 | Cc1ccc(S(=O)(=O)NCc2ccncc2)cc1C | 18.1
24 | COc1ccc(OC)c(C(=O)c2ccc(C(=O)O)cc2)c1 | 5.23
25 | COc1ccc(C(=O)Cn2c(NCCCl)nc3ccccc32)cc1.Cl | -9.33
26 | CCOc1ccc(C2CC(=O)NC(SC)=C2C#N)cc1 (centres unmarked) | 8.52
27 | Cc1c(C)c(C)c(C(=O)C2CCN(c3ccc([N+](=O)[O-])cn3)CC2)c(C)c1C | 12.8
28 | Cc1nc2ccccc2nc1N1CCC(C)CC1 | -5.78
29 | Cc1ccc(NC(=O)C2CCCN(C(=O)c3ccc(Cl)cc3)C2)cc1S(=O)(=O)N1CCOCC1 (centres unmarked) | -23.9
30 | O=C(CSCc1ccc(Cl)cc1)Nc1ccc(-c2nnc(-c3ccccc3)o2)cc1 | 1.35
31 | O=C1CSC(c2ccccc2)N1c1ccc([N+](=O)[O-])cc1 (centres unmarked) | -32.5
32 | C/C(N)=C(/C#N)C(=O)CSc1nnc(Cc2ccccc2F)n1N | 8.69
33 | CCCCOc1ccc(C2CC(=O)N(C)C2=O)cc1 (centres unmarked) | -3.48
34 | COc1ccc(C(=O)c2c3ccc([N+](=O)[O-])cc3[n+]([O-])n2CCCC(N)=O)cc1 | -34.6
35 | CCC(=O)N1CCN(c2ccc(NC(=O)c3ccccc3)cc2)CC1 | 0.185
36 | COc1ccc(C(=O)NCCCCc2ccccc2)cc1 | -4.68
37 | Cc1cccc(OCCn2c(=S)[nH]c3ccccc32)c1 | 11
38 | Cc1ccc(-c2nc(N)sc2C)cc1 | -16.9

Row | Compound | hERG current change (%, negative = inhibition) at 10uM [%]
39 | CCOC(=O)CN1C(=O)C(=O)N(Cc2cccc(C)c2)C1=O | 13.1
40 | COc1ccc(COCC(O)CN2CCCC(C(F)(F)F)C2)cc1 (centres unmarked) | 2.45
41 | CCN(CC)S(=O)(=O)c1cccc(N=NC2=C(O)CCCC2=O)c1 | -15.7
42 | O=C(CCn1c(=O)oc2ccccc21)NCc1cccs1 | 5.01
43 | COc1ccc(C)cc1NC(=O)C(NC(=O)c1cc(OC)c(OC)c(OC)c1)C(C)C (centres unmarked) | 12
44 | CCc1nnc(NC(=O)CSc2nc3c(cc2C#N)CCC3)s1 | -6.61
45 | CCc1ccccc1NC(=S)N1CCNC(=O)C1CC(=O)OC (centres unmarked) | 15.1
46 | Cc1ccc(NC(=O)CCN2C(=O)CSC2=O)cc1 | 3.32
47 | COc1ccc(-c2noc(N3CCC(C(=O)Nc4cc(OC)ccc4OC)CC3)n2)cc1 | -0.199
48 | COc1ccc(N2C(=O)CC(Sc3nnc(-c4ccccc4F)n3C)C2=O)cc1 (centres unmarked) | 19.8
49 | COc1ccc(CC(=O)N2CCC3(CC2)NCCc2[nH]cnc23)cc1 | 20.3
50 | CCn1c(CC(=O)Nc2ccc(C)cc2)n[nH]c1=S | 21.6
51 | O=C(CCc1ccccc1Cl)Nc1cccc(S(=O)(=O)N2CCCC2)c1 | 0.824
52 | COC(=O)c1sccc1NC(=O)c1ccccc1[N+](=O)[O-] | 3.79
53 | Clc1cccc(/C=N/N2CCN(Cc3ccccc3)CC2)c1 | 11.6
54 | Cc1nn(-c2ccccc2)c(Cl)c1/C=N/NC(=O)c1ccccc1NS(=O)(=O)c1cccs1 | -0.372
55 | O=C(NCCc1cnc[nH]1)Nc1cccc(C(F)(F)F)c1 | -8.58
56 | CCn1cc(C(=O)N[C@@H](CCSC)C(=O)NC(C)(C)CO)c(=O)c2cc3c(cc21)OCO3 | 20.8
